# Several values for one entry are separate records, joined by “and”; a condition that tells them apart may be missing. Identical values can stand only once. Inconclusive means that the source gave no clear call. Such entries were picked first, then a sample of the others. For some assays here: Potencies of inconclusive entries are doubtful fits and often do not repeat. Some structures have more than one record in an assay (separate samples or runs), and their calls can disagree. Activity calls are given as the source filed them. Unless noted, calls come from the whole dose curve; as a rule, active = well fitted curve in the direction sought with a large enough effect in the repeat runs; inconclusive = weak or mixed curves; inactive = no such curve, though single readings can be large; an effect the other way counts as inactive or inconclusive.
# Legend:
# [1] = qHTS assay for identifying genotoxic compounds that show differential cytotoxicity against isogenic chicken DT40 cell lines with known DNA damage response pathways - wild type cell line (AID 743012); conditions: DT40 wild type chicken cells viability, CellTiter-Glo, 40 h; activity change, negative = cytotoxicity: at 68.4 µM (top of the series) unless noted; note: potency is the fitted concentration of half-maximal effect; nearly all actives have a fitted effect of over 60% in size
# Method in brief: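 Endpoint: CellTiter-Glo luminescence, 30 min RT. Cells: wild type DT40, 300/well. Exposure: compounds in DMSO, 40 h, 37 C/5% CO2, after ~0.5 h pre-incubation.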
# [2] = qHTS assay for identifying genotoxic compounds that show differential cytotoxicity against isogenic chicken DT40 cell lines with known DNA damage response pathways - Rev3 mutant cell line (AID 743014); conditions: chicken DT40 Rev3-/- viability, CellTiter-Glo, 40 h; activity, negative = cytotoxicity: at 68.4 µM (top of the series); note: potency is the fitted concentration of half-maximal effect; nearly all actives have a fitted effect of over 55% in size
# [3] = molecular target: Androgen receptor (Homo sapiens) (UniProt P10275); assay: qHTS assay to identify small molecule antagonists of the androgen receptor (AR) signaling pathway (AID 743035; active = well fitted inhibition curve with a large enough effect in the signal ratio in the repeat runs, not every such curve was filed as active; inconclusive = weak or mixed curves, or effect the other way; inactive = no such curve, though single readings can be large or run the other way; the % refers to the signal ratio; note: % is set by controls: 0 for no effect and ±100 for the full control effect); conditions: HEK293 AR-UAS-bla, R1881-stimulated, beta-lactamase FRET, 16 h; activity change, negative = inhibition: at 58.5 µM (top of the series) unless noted
# Method in brief: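 R1881 agonist challenge of a HEK293 UAS-beta-lactamase AR reporter line in the presence of compound (16 h, 37C); signal taken as FRET fluorescence after 2 h with LiveBLAzer B/G substrate at room temperature.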
# [4] = molecular target: Androgen receptor (Homo sapiens) (UniProt P10275); assay: qHTS assay to identify small molecule agonists of the androgen receptor (AR) signaling pathway (AID 743036; active = well fitted activation curve with a large enough effect in the signal ratio in the repeat runs, with a control signal flat, not every such curve was filed as active; inconclusive = weak or mixed curves, or effect the other way; inactive = no such curve, though single readings can be large or run the other way; the % refers to the signal ratio; note: % is set by controls: 0 for no effect and ±100 for the full control effect); conditions: HEK293 AR-UAS-bla GripTite, beta-lactamase FRET ratio, 16 h; activation: at 62.4 µM (top of the series) unless noted
# Method in brief: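 Following a 4 h settling period, AR-UAS-bla HEK293 cells were dosed with compounds for 16 h at 37C. A 2 h room-temperature incubation with LiveBLAzer B/G FRET substrate preceded the fluorescence measurement.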
# [5] = qHTS assay to identify small molecule antagonists of the thyroid receptor (TR) signaling pathway - cell viability counter screen (AID 743064); conditions: GH3.TRE-Luc viability, CellTiter-Fluor, 24 h; activity change, negative = cytotoxic: at 70.3 µM (top of the series) unless noted; note: potency is the fitted concentration of half-maximal effect; nearly all actives have a fitted effect of over 50% in size
# Method in brief: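 CellTiter-Fluor readout, 30 min at 37 °C/5% CO2, following 23.5 h incubation of GH3.TRE-Luc cells with test compound and 1 nM T3 (final).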
# [6] = molecular target: Estrogen receptor (Homo sapiens) (UniProt P03372); assay: qHTS assay to identify small molecule agonists of the estrogen receptor alpha (ER-alpha) signaling pathway using the BG1 cell line (AID 743079); conditions: BG1Luc4E2 cells, ERE-luciferase agonist, 22 h; activation: at 70.3 µM (top of the series) unless noted; note: potency is the fitted concentration of half-maximal effect; nearly all actives have a fitted effect of over 20% in size
# [7] = qHTS assay to identify small molecule antagonists of the thyroid receptor (TR) signaling pathway (AID 743065); note: potency is the fitted concentration of half-maximal effect; nearly all actives have a fitted effect of over 55% in size
# Method in brief: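 Antagonism measured as loss of luciferase signal in GH3 cells stably carrying a TRE-luciferase reporter, co-treated with compound and T3 (1 nM final) for 23.5 h at 37 C. Viability was read in the same well by CellTiter-Fluor.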
# [8] = qHTS assay to identify small molecule antagonists of the estrogen receptor alpha (ER-alpha) signaling pathway - cell viability counter screen (AID 743074; calls by dose curve;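 note: HEK293 cells carrying ER-alpha-UAS-bla reporter stimulated with 17beta-estradiol; potency is the fitted concentration of half-maximal effect; nearly all actives have a fitted effect of over 45% in size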)
# [9] = qHTS assay to identify small molecule antagonists of the androgen receptor (AR) signaling pathway - cell viability counter screen (AID 743033; note: potency is the fitted concentration of half-maximal effect; nearly all actives have a fitted effect of over 45% in size); conditions: AR-bla HEK293 viability, CellTiter-Glo luminescence, 16 h; activity change, negative = cytotoxicity: at 58.5 µM (top of the series) unless noted
# [10] = qHTS assay to identify small molecule antagonists of the androgen receptor (AR) signaling pathway using the MDA cell line - cell viability counter screen (AID 743041; note: potency is the fitted concentration of half-maximal effect; nearly all actives have a fitted effect of over 45% in size); conditions: MDA-kb2 viability, CellTiter-Fluor, 16 h, cells co-treated with R1881 androgen agonist; viability change, negative = cytotoxic: at 70.3 µM (top of the series) unless noted
# Method in brief: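 Using the breast carcinoma line MDA-kb2 AR-luc, test chemicals were co-incubated with R1881 for 16 h; CellTiter-Fluor reagent, added at 15.5 h, provided a fluorescence measure of live cells.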
# [11] = test system: thyroid hormone receptor (rat, GH3 cells); assay: qHTS assay to identify small molecule agonists of the thyroid receptor (TR) signaling pathway (AID 743066; calls by dose curve; note: potency is the fitted concentration of half-maximal effect); conditions: GH3.TRE-Luc cells, TR agonist luciferase, 24 h; activation: at 83.9 µM (top of the series) unless noted
# [12] = qHTS assay to identify small molecule antagonists of the estrogen receptor alpha (ER-alpha) signaling pathway using the BG1 cell line - cell viability counter screen (AID 743081); conditions: BG1Luc4E2 viability, CellTiter-Fluor, 22 h; activity change, negative = cytotoxicity: at 70.3 µM (top of the series) unless noted;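 note: compound given together with 17beta-estradiol as the ER stimulus; potency is the fitted concentration of half-maximal effect; nearly all actives have a fitted effect of over 45% in size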
# Tags give direction and shape of the fitted curve.
# Sequence of UniProt P10275 (P10275 whole entry, looked up): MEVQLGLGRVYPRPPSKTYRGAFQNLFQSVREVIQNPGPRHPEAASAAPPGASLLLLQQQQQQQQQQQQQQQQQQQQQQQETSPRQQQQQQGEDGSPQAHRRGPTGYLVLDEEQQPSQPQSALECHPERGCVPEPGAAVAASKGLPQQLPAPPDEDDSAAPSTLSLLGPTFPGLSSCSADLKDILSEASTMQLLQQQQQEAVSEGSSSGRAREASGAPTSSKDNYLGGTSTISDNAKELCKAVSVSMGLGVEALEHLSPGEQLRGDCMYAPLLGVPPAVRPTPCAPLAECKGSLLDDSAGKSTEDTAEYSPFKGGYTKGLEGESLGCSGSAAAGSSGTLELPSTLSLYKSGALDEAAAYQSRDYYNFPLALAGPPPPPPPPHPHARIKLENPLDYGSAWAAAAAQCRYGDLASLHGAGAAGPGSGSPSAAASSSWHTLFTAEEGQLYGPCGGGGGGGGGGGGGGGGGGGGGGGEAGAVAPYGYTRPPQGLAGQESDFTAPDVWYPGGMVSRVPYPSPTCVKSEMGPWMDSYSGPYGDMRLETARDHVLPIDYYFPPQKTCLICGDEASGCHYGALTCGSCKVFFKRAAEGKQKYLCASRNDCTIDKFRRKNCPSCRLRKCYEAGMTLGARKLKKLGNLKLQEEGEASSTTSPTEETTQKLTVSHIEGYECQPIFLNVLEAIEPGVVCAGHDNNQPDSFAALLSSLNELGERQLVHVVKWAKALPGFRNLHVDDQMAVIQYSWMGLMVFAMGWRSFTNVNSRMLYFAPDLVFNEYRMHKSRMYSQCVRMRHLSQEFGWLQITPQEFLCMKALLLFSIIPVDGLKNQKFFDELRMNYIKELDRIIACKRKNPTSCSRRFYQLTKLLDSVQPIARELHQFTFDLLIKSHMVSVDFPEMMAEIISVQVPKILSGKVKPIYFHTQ
# Sequence of UniProt P03372 (P03372 whole entry, looked up): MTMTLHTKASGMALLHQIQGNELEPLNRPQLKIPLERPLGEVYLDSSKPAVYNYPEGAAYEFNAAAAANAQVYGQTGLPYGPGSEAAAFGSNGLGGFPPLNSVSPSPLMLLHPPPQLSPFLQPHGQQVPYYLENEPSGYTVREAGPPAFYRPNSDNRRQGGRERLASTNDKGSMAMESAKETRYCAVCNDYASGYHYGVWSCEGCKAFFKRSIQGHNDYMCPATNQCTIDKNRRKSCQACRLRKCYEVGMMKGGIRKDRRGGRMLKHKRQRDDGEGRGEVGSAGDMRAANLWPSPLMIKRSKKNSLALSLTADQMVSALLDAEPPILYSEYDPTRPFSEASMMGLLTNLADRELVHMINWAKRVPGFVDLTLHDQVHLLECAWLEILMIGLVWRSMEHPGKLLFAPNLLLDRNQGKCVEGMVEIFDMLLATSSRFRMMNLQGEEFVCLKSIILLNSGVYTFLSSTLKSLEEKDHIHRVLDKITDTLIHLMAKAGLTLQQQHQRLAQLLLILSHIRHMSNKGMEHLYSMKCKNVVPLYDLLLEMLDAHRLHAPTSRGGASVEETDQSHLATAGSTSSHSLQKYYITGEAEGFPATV
structure (smiles),measurement,setting,value
c1ccc2[nH]c(-c3cscn3)nc2c1,Potency,[1],"inconclusive: 68.6 µM [cytotoxic, single point]"
same,Potency,[2],"inconclusive: 61.5 µM [cytotoxic, single point]"
same,"activity change, negative = inhibition",[3],inconclusive: -32.5% [at 78.9 µM]
same,Potency,[4],inactive
same,Potency,[5],"inconclusive: 6.86 µM [rising, full curve, poor fit]"
same,Potency,[6],active: 16.8 µM and active: 24.5 µM and active: 9.69 µM
CC(=O)C1(C)CC2=C(CCCC2(C)C)CC1C (stereo not drawn),Potency,[1],"inconclusive: 61.1 µM [cytotoxic, single point]"
same,Potency,[2],inconclusive: 54.5 µM [cytotoxic]
same,Potency,[3],inactive
same,Potency,[4],inactive
same,Potency,[5],"inconclusive: 61.1 µM [cytotoxic, single point]"
same,Potency,[7],"inconclusive: 68.6 µM [inhibitor, single point]"
same,Potency,[8],"inconclusive: 58.7 µM [cytotoxic, single point]"
CCC(C)(C)CC,Potency,[1],"inconclusive: 71.9 µM [cytotoxic, single point]"
same,Potency,[2],"inconclusive: 71.9 µM [cytotoxic, single point]"
same,Potency,[9],inconclusive: 57.6 µM [cytotoxic]
same,Potency,[10],"inconclusive: 28.6 µM [rising, partial curve]"
same,Potency,[5],"inconclusive: 0.255 µM [rising, single point]"
Oc1ccc(CCNCCCCCCNCCc2ccccc2)cc1O,Potency,[1],active: 13.3 µM
same,Potency,[2],active: 29.8 µM
same,Potency,[11],"inconclusive: 29.8 µM [inhibitor, partial curve, poor fit]"
same,Potency,[8],"inconclusive: 10.7 µM [rising, single point]"
same,Potency,[12],"inconclusive: 33.5 µM [cytotoxic, partial curve, poor fit]"
